{
  "source": "PubChem BioAssay AID686979",
  "about": "(National Center for Advancing Translational Sciences (NCATS), 2013)",
  "note": "In all, about 420,000 compounds went through this assay and about 50,000 (12%) were called active. The inconclusive results got no clear call from the source; some entries with a clear call stand among them for comparison. The call rests on the fitted dose curve; in most records, active means well fitted inhibition curve with a large enough effect; inconclusive means small, poorly fitted or top-dose-only effect; inactive means flat fitted curve, though single readings scatter. No potency is given beside an inconclusive call; the fits are too rough. On the % scale 0 is the no-effect control and ±100 the full control effect; potency means the concentration at half of the fitted maximal effect; tags describe the fitted curve by direction and shape.",
  "data": [
    {"assay": "qHTS for Inhibitors of human tyrosyl-DNA phosphodiesterase 1 (TDP1): qHTS in cells in presence of CPT; further: nearly all actives have a fitted effect of over 55% in size", "settings": "chicken DT40 Tdp1-/-;hTDP1 cells + 20 nM CPT, ATP luminescence, 48 h; activity change, negative = growth inhibition: at 46.2 µM (top of the series) unless noted", "how_it_was_run": "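Chicken DT40 Tdp1-/- cells complemented with human TDP1, 400 cells/well, exposed to compounds plus 20 nM camptothecin for at least 48 h at 37 C; viability read as ATP content by CellTiter-Glo luminescence.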", "values": [
      {"smiles": "CC1(C(=O)NS(=O)(=O)c2ccc(C#N)cc2)CCN1C(=O)C1(c2ccccc2)CC1", "note": "(stereo not given)", "Potency": "inactive"},
      {"smiles": "Cc1ccccc1NC(=O)CSc1nnc(-c2ccco2)c(-c2ccco2)n1", "Potency": "inconclusive [inhibitor, single point]"},
      {"smiles": "COC(=O)c1cccc(NC(=O)CCCN2C(=O)NC3(CCCC3)C2=O)c1", "Potency": "inactive"},
      {"smiles": "CC(=O)N1CCCc2cc(S(=O)(=O)N(Cc3ccccc3)C(C)C)ccc21", "Potency": "active: 14.6 µM"},
      {"smiles": "O=C(COc1ccccc1C(=O)NCc1ccccc1)Nc1ccc(Br)cc1", "Potency": "inconclusive [inhibitor, partial curve, poor fit]"},
      {"smiles": "COc1ccc(-n2c(CCC(=O)O)ccc2-c2ccccc2)c(OC)c1", "Potency": "inactive"},
      {"smiles": "COc1ccc(C(=O)N/N=C/c2ccc(N(C)c3ccccc3)cc2)cc1", "Potency": "inconclusive [inhibitor, single point]"},
      {"smiles": "O=C(N/N=C/C=C\\c1ccccc1[N+](=O)[O-])c1cc(-c2ccc3ccccc3c2)n[nH]1", "Potency": "inconclusive [inhibitor, single point]"},
      {"smiles": "COc1cc(OC)c(NC(=O)CCNS(=O)(=O)c2ccc3c(c2)oc(=O)n3C)cc1Cl", "Potency": "inconclusive [inhibitor, full curve, poor fit]"},
      {"smiles": "CCC(=O)c1ccc(N2CCN(C(=O)c3ccc(Br)cc3)CC2)c(F)c1", "Potency": "active: 20.6 µM"},
      {"smiles": "COc1ccc(C(=O)NCCCN2CCCC2=O)cc1S(=O)(=O)N1CCOCC1", "Potency": "inactive"},
      {"smiles": "COc1ccccc1C(=O)NCCNc1ccc([N+](=O)[O-])cc1Cl", "Potency": "inconclusive [inhibitor, single point]"},
      {"smiles": "CCOC(=O)C1=CN(Cc2cccc(-c3ccc(Cl)nc3)c2)S(=O)(=O)N(C)C1C", "note": "(stereo not given)", "Potency": "active: 23.1 µM"},
      {"smiles": "Cc1cccc(N(C(=O)c2ccc(CN3CCOCC3)o2)C(C(=O)NC(C)(C)C)c2ccc(F)cc2)c1", "note": "(stereo not given)", "Potency": "inconclusive [inhibitor, single point]"},
      {"smiles": "Cc1ccc(N2CCN(CC(O)COc3cccc4ccccc34)CC2)cc1", "note": "(stereo not given)", "Potency": "inconclusive [inhibitor, single point]"},
      {"smiles": "O=C(NC1CCN(Cc2ccccc2)CC1)c1ccc(S(=O)(=O)NCc2ccco2)cc1", "Potency": "inconclusive [inhibitor, single point]"},
      {"smiles": "CC1=NN(c2nc(-c3ccccc3)cs2)C(=O)C1N=Nc1ccccc1", "note": "(stereo not given)", "Potency": "inconclusive [inhibitor, single point]"},
      {"smiles": "COc1ccc(N/C=C2\\CCc3ccccc3C2=O)cc1", "Potency": "inconclusive [inhibitor, single point]"},
      {"smiles": "Cc1ccc2occ(CC(=O)N3CCN(c4cccc(Cl)c4)CC3)c2c1", "Potency": "inconclusive [inhibitor, single point]"},
      {"smiles": "Nc1[nH]c(C(=O)c2ccccc2)c(-c2ccc(C(F)(F)F)cc2)c1C(=O)NCc1ccc(Cl)cc1Cl", "activity change, negative = growth inhibition": "inconclusive: -33.1% [inhibitor]"},
      {"smiles": "Cc1ccc(CNC(=O)CSC2=Nc3ccccc3C3=NC(C)C(=O)N23)cc1", "note": "(stereo not given)", "Potency": "inactive"},
      {"smiles": "CC(=O)Nc1ccc(NC(=O)c2cccc3ccccc23)cc1", "Potency": "inactive"},
      {"smiles": "CCc1nc2cc(C(=O)N(C)CC3COCCO3)cc(NC(=O)c3ccccc3OC)c2n1C", "note": "(stereo not given)", "Potency": "inactive"},
      {"smiles": "O=C(COc1ccc(Cl)cc1Cl)N/N=C/c1ccccn1", "Potency": "inconclusive [inhibitor, single point]"},
      {"smiles": "CCCN1CCN(CCCNC(=O)Cn2c(-c3cccs3)cc3cc(Cl)ccc32)CC1", "Potency": "inconclusive [inhibitor, single point]"},
      {"smiles": "Cc1ccc(S(=O)(=O)N2CCN(C(=O)CCC(=O)NCCc3ccc(F)cc3)CC2)cc1", "Potency": "inactive"},
      {"smiles": "Cc1cc(Cl)ccc1NC(=O)c1cc2ccccn2n1", "Potency": "inconclusive [inhibitor, partial curve]"},
      {"smiles": "COc1ccccc1NC(=O)C1CCN(S(=O)(=O)c2ccc3c(c2)NC(=O)C(C)S3)CC1", "note": "(stereo not given)", "Potency": "inconclusive [inhibitor, single point]"},
      {"smiles": "Cc1ccc2[nH]c3c(=O)n(CCc4cnc[nH]4)cnc3c2c1", "Potency": "inactive"},
      {"smiles": "O=C(Nc1ccc(F)c([N+](=O)[O-])c1)c1cccs1", "Potency": "inconclusive [inhibitor, single point]"},
      {"smiles": "CCC(c1nnnn1CCOC)N1CCN(C(=O)c2ccco2)CC1", "note": "(stereo not given)", "Potency": "inactive"},
      {"smiles": "COc1ccc(-c2csc(C(C)(O)c3ccccc3)n2)cc1OC", "note": "(stereo not given)", "Potency": "inconclusive [inhibitor, single point]"},
      {"smiles": "COc1ccccc1N1CCN(S(=O)(=O)c2ccc(-c3cnc(C4CC4)o3)cc2)CC1", "Potency": "inconclusive [inhibitor, single point]"},
      {"smiles": "Cc1ccc(C(=O)N2c3ccccc3CC2C)o1", "note": "(stereo not given)", "Potency": "inconclusive [inhibitor, partial curve, poor fit]"},
      {"smiles": "CC1CCCN(CCCOc2ccc(Cl)cc2Br)C1", "note": "(stereo not given)", "Potency": "inconclusive [inhibitor, single point]"},
      {"smiles": "Cc1ccc(OCc2nnc(-c3ccccc3)o2)cc1", "Potency": "inactive"},
      {"smiles": "O=C(CCS(=O)(=O)c1ccc(Br)cc1)N1CCN(c2ccc(Cl)cc2)CC1", "Potency": "inconclusive [inhibitor, single point]"},
      {"smiles": "CC(C)CCNC(=O)c1cn(C)c2ccc(S(=O)(=O)N3CCOCC3)cc2c1=O", "Potency": "inactive"},
      {"smiles": "CN(C)CC/C=C1/c2ccccc2CS(=O)(=O)c2ccccc21", "Potency": "inactive"},
      {"smiles": "Cc1cc(C)c(NC(=O)Cn2c(=O)n(Cc3ccccc3)c(=O)c3c(C)c(C(=O)N(C)C)sc32)c(C)c1", "Potency": "inconclusive [inhibitor, single point]"},
      {"smiles": "COc1ccc2c(c1)CCCC21NC(=O)N(CC(=O)NCc2cccs2)C1=O", "note": "(stereo not given)", "Potency": "inactive"},
      {"smiles": "CCCCOc1ccc(C(=O)N(CC)CC(=O)NCc2cccs2)cc1", "Potency": "inconclusive [inhibitor, single point]"},
      {"smiles": "C[C@@H](CN=[N+]=[N-])CN1CC[C@H](NC(=O)OCc2ccccc2)CCC1=O", "Potency": "inconclusive [inhibitor, single point]"},
      {"smiles": "CC(=O)c1sc(NC(=O)CCS(=O)(=O)c2ccc(F)cc2)nc1C", "Potency": "active: 2.59 µM"},
      {"smiles": "CCCCn1nnnc1C(c1ccccc1)N1CCN(c2ccc(C(F)(F)F)cc2[N+](=O)[O-])CC1", "note": "(stereo not given)", "Potency": "inconclusive [inhibitor, single point]"},
      {"smiles": "COc1cc2c(cc1OC)C(COc1ccccc1OC)N(C(=O)c1ccccc1OC)CC2", "note": "(stereo not given)", "Potency": "inconclusive [inhibitor, single point]"},
      {"smiles": "Cc1sc2ncn(CCn3cnc4sc(C)c(C)c4c3=O)c(=O)c2c1C", "Potency": "inconclusive [inhibitor, single point]"},
      {"smiles": "O=C(NCC(c1ccco1)N1CCc2ccccc2C1)c1cccc([N+](=O)[O-])c1", "note": "(stereo not given)", "Potency": "inconclusive [inhibitor, single point]"},
      {"smiles": "Cc1ccc(S(=O)(=O)N2CCN(c3nc(-c4ccc(CN5CCOCC5)s4)nc4ccccc34)CC2)cc1", "Potency": "inconclusive [inhibitor, single point]"},
      {"smiles": "CCN(C(=O)COC(=O)CNS(=O)(=O)c1ccc(SC)c([N+](=O)[O-])c1)C1CCCCC1", "Potency": "inactive"},
      {"smiles": "CCc1cccc(NC(=O)CCS(=O)(=O)c2cc3c4c(c2)CCN4C(=O)CC3)c1", "Potency": "inactive"},
      {"smiles": "COc1ccc(CN2CCN(Cc3cc4ccccc4o3)CC2CCO)c(F)c1", "note": "(stereo not given)", "Potency": "inconclusive [inhibitor, single point]"},
      {"smiles": "Cc1cccc(C(=O)Nc2cccc(OCc3cc(=O)n4ccccc4n3)c2)c1", "Potency": "inactive"},
      {"smiles": "Cc1cccc(N(CC(=O)Nc2ccc(-c3nc4ccc(C)cc4s3)cc2)S(C)(=O)=O)c1", "Potency": "active: 13 µM"},
      {"smiles": "CCOC(=O)Cc1ccc(NC(=O)c2ccc(C(C)(C)C)cc2)cc1", "Potency": "active: 18.4 µM"},
      {"smiles": "COc1cc2nc(N3CCCN(C)CC3)nc(NC(C)C)c2cc1OC", "Potency": "active: 12.6 µM"},
      {"smiles": "COc1ccc(CCN(C)C(=O)c2ccc(S(=O)(=O)Nc3ccccc3C)cc2)cc1OC", "Potency": "inconclusive [inhibitor, single point]"},
      {"smiles": "CC(=O)c1cccc(NC(=O)c2nc(-c3ccccc3)n(-c3cccc(C)c3)n2)c1", "Potency": "active: 16.4 µM"},
      {"smiles": "CCS(=O)(=O)N1CCc2cc(C(=O)Nc3ccc(OC)cc3OC)ccc21", "Potency": "inconclusive [inhibitor, single point]"},
      {"smiles": "CCN1CCN(c2ncnc3scc(-c4ccc(C)cc4)c23)CC1", "Potency": "inconclusive [inhibitor, partial curve]"},
      {"smiles": "O=C(N/N=C/c1ccc(N2CCOCC2)cc1)c1cccs1", "Potency": "inconclusive [inhibitor, single point]"},
      {"smiles": "COc1ccc(CNC(=O)CN2c3ccccc3S(=O)(=O)c3ccccc32)cc1", "Potency": "inactive"},
      {"smiles": "O=C(Cn1ccc2ccccc2c1=O)N1CCN(c2cccc(Cl)c2)CC1", "Potency": "inactive"},
      {"smiles": "COc1ccccc1N1CCN(C(=O)Cn2c(=O)n3nc(-c4cccc(C)c4)nc3c3ccccc32)CC1", "activity change, negative = growth inhibition": "inconclusive: 2.35% [inhibitor]"},
      {"smiles": "CC(C)c1cc(Cn2c3ccccc3c(=O)n2C(C)C)on1", "Potency": "inactive"},
      {"smiles": "O=C1C=C(c2cccc(Cl)c2O)C[C@@H](c2ccc3c(c2)OCO3)C1", "Potency": "inconclusive [inhibitor, single point]"},
      {"smiles": "COc1ccc2[nH]c3c(=O)n(CCCC(=O)NC4CCCCC4C)c(=S)[nH]c3c2c1", "note": "(stereo not given)", "Potency": "inconclusive [inhibitor, single point]"},
      {"smiles": "CSc1cccc(CNC(=O)CC2C(=O)NCCN2CC(C)(C)C)c1", "note": "(stereo not given)", "Potency": "inactive"},
      {"smiles": "N#Cc1ccccc1OCC(=O)N(Cc1nnc(-c2ccccc2Cl)o1)C1CC1", "Potency": "inconclusive [inhibitor, single point]"},
      {"smiles": "Cc1ccc(Nc2sc(C(=O)c3ccccc3)c(N)c2S(=O)(=O)c2ccccc2)c(C)c1", "Potency": "inconclusive [inhibitor, single point]"}
    ]}
  ]
}
